Columns and labels:
Dupilumab (hIgG4) = assay: cell-based or functional assay
Mouse IgG1 = assay: cell-based or functional assay

- total conversion, second column (head printed as 'Light chain total conversion', read as heavy chain; Q-ToF LC-MS; 20 eq., room temperature) (Dupilumab (hIgG4)): 96%
- total conversion, second column (head printed as 'Light chain total conversion', read as heavy chain; Q-ToF LC-MS; 20 eq., rt) (Dupilumab (hIgG4)): 96%
- total conversion, second column (head printed as 'Light chain total conversion', read as heavy chain; Q-ToF LC-MS; 20 eq., room temperature) (Mouse IgG1): 69%
- total conversion, second column (head printed as 'Light chain total conversion', read as heavy chain; Q-ToF LC-MS; 20 eq., rt) (Mouse IgG1): 69%
B1: PEL-21 (peptide)
peptide: FNMQQQRRFYEALHDPNLNCEQRNAKIKSIRDD
modifications: not checked

— patent US20250127918A1, “SITE-SELECTIVE CONJUGATION OF A PHARMACEUTICAL AGENT TO AN ANTIBODY USING AN AFFINITY PEPTIDE” (priority 2023, published 2025)
